Measured values reported in PubChem BioAssay AID1346428 (National Center for Advancing Translational Sciences (NCATS), 2018).
Several values for one entry are separate records, joined by “and”; a condition that tells them apart may be missing. Identical values can stand only once. Among all 48,000 compounds or so, about 1,200 (2.5%) were called active. Roughly 2% stayed inconclusive and do not appear here.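 The calls were made as follows: active = activation of at least 60% and not above a set upper limit (about 1 call in 100 departs from these limits); inconclusive = activation of 40% to 60%, or above that upper limit; inactive = activation under 40%.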 The list shows a part of the results. Some compounds were tested as several samples or in several runs, with calls that do not always agree.

Biological target: Probable G-protein coupled receptor 32 (Homo sapiens) (UniProt O75388)
Chain of UniProt O75388 (O75388 whole entry, looked up): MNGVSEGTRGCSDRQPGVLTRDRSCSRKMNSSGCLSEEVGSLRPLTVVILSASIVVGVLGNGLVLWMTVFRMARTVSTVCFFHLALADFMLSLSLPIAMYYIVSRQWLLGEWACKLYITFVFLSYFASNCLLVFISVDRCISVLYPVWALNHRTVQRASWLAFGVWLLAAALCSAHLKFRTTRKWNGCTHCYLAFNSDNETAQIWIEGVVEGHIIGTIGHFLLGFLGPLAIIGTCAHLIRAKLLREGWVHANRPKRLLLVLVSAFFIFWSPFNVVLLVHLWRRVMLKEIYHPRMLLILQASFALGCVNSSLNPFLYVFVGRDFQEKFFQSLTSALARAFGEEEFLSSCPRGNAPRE
Test: qHTS for Agonists of Human Resolvin D1 Receptor DRV1; also: 0% is about no effect
Conditions: CHO-K1 GPR32 beta-arrestin PathHunter luminescence, 90 min; at 76.9 µM; stronger effect = higher value; zero percent set by DMSO-only wells
How it was run: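 Readings come from a cell-based beta-arrestin complementation format: CHO-K1 GPR32 stable cells (2,500/well) treated 90 min with compounds, then beta-Gal substrate added for 1 h before chemiluminescence imaging.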

Row | Compound | activation
1 | CCCCN1C(=O)CN(C2CCCCC2)C(=O)C1c1ccc(OC(C)C)c(OC)c1 (centres undefined) | inactive: -19.1%
2 | COc1ccc(CNc2cc(-c3ccc(OC)cc3)nc3nncn23)cc1 | inactive: 23.2%
3 | O=C(CSc1nc2c(c(=O)[nH]1)CCCC2)Nc1ccc(Br)cc1 | inactive: 31.7%
4 | Cc1ccc(C)c(N2CCN(c3nc4ccccc4n4c(C)nnc34)CC2)c1 | inactive: -3.32%
5 | Cc1ccc(NC(=O)C(c2ccccc2)N2Cc3ccccc3C2=O)cc1Cl (centres undefined) | inactive: -7.93%
6 | CCCC(C(=O)OCCN(CC)CC)(c1ccccc1)c1ccccc1 | active: 60.2% and inactive: -17.3%
7 | Cc1ccc(NC(=O)Cn2c(=O)n(CCC(=O)NCc3ccc4c(c3)OCO4)c(=O)c3sccc32)c(C)c1 | inactive: -13.4%
8 | Cc1ccc(Cl)cc1NC(=O)CN1C(=O)COc2ccc(S(=O)(=O)N3CCOCC3)cc21 | inactive: -8.27%
9 | CCCCn1cc(S(=O)(=O)c2ccc(F)cc2)c(=O)c2ccccc21 | inactive: -11.7%
10 | COc1ccccc1CNC(=O)c1ccc(-c2nc(CS(=O)c3ccccc3)c(C)o2)cc1 (centres undefined) | inactive: 6.99%
11 | O=C(Cc1ccc(NC(=O)N2CCCCc3ccccc32)cc1)NCc1ccccc1 | inactive: -5.05%
12 | CCCCN(CCCC)CCNC(=O)c1cc(-c2cccnc2)nc2ccc(S(=O)(=O)N3CCC(C)CC3)cc12 | inactive: -7.2%
13 | CCOc1ccc2nc(N3CCCC(C(=O)Nc4cccc(Cl)c4C)C3)sc2c1 (centres undefined) | inactive: -5.56%
14 | CCc1cc2c(cc3c(=O)n(CC(=O)N4CCCCC4)ncn32)s1 | inactive: -21.3%
15 | COc1ccc(N(Cc2cccs2)C(=O)COc2ccc(C(C)C)cc2)cc1 | inactive: -2.95%
16 | COc1ccc(S(=O)(=O)c2c(Nc3ccc(C)cc3)sc(C(=O)c3ccc4c(c3)OCO4)c2N)cc1 | inactive: -21.8%
17 | Cc1cc(F)ccc1NC(=O)C1CCCN(S(=O)(=O)c2ccc3c(c2)CCCC(=O)N3)C1 (centres undefined) | inactive: 5.8%
18 | Cc1cnc2c(c1SCC(=O)Nc1ccc(F)cc1F)c(=O)n(C)c(=O)n2C | inactive: -2.01%
19 | COc1ccc(Cn2c(SCC(N)=O)nc3c(sc4ccccc43)c2=O)cc1 | inactive: -1.72%
20 | Cc1ccc2[nH]c3c(=O)n(CC(=O)N4CCN(c5cccc(C(F)(F)F)c5)CC4)ncc3c2c1 | inactive: 7.55%
21 | CCOc1ccc(N2C(=O)N(Cc3c(F)cccc3Cl)c3ccccc3S2(=O)=O)cc1 | inactive: -18.3%

Row | Compound | activation
22 | CN(C)c1ccc(CN(CC2CCCO2)C(=O)c2ccc(Br)cc2)cc1 (centres undefined) | inactive: -28.2%
23 | Cc1ccc(-n2c(=O)c3ccc(C(=O)NCc4ccccc4Cl)cc3n(CC(=O)Nc3cccc(F)c3)c2=O)cc1 | inactive: -17.2%
24 | Cc1ccc2[nH]c(CSc3nnc(COc4ccccc4C)n3C)cc(=O)c2c1 | inactive: 17.4%
25 | COc1cccc(CNC(=O)CN2C(=O)CSc3c2c(C)nn3-c2ccccc2)c1 | inactive: -7.72%
26 | O=C(COCc1cc(-c2cccs2)on1)Nc1ccc(OC(F)(F)F)cc1 | inactive: -10.1%
27 | CC(C)NC(=O)c1ccc(C=O)cc1 | inactive: -0.696%
28 | CCCCOc1ccc(NC(=O)Cn2nnnc2-c2ccccc2F)cc1 | inactive: -7.43%
29 | Cc1cc2c(cc1C)NC(CC(=O)Nc1ccccc1SC(F)(F)F)C(=O)N2 (centres undefined) | inactive: -30.4%
30 | COc1ccc2ncc3c(-c4ccc(C)c(C)c4)nn(CC(=O)NC4CCCCC4)c3c2c1 | inactive: -0.499%
31 | COc1cc(OC)c(NC(=O)Cn2cnc3sc(C)c(S(=O)(=O)N4CCN(C)CC4)c3c2=O)cc1Cl | inactive: -0.551%
32 | Cc1ccc(S(=O)(=O)c2nc(-c3ccco3)oc2SCC(C)C)cc1 | inactive: -37.2%
33 | CN1CCC[C@H]1c1cccnc1 | inactive: -3.11%
34 | Cc1cc2ccccc2n1CCNC(=O)c1cccc(Cl)c1 | active: 116%
35 | COc1ccc(CNC(=O)CC(c2ccc(OC)c(OC)c2)N2Cc3ccccc3C2=O)cc1 (centres undefined) | inactive: 12.5%
36 | CCOc1ccc(NC(=O)CSC2=Nc3ccccc3C3=NC(CC(=O)NCc4ccco4)C(=O)N23)cc1 (centres undefined) | inactive: -34.4%
37 | COc1ccccc1CNc1ccc(-c2nc(-c3ccncc3)no2)cc1[N+](=O)[O-] | inactive: 18.1%
38 | CC(C)c1ccc(NC(=O)c2cc(S(=O)(=O)NCc3ccccc3Cl)ccc2F)cc1 | inactive: -13.4%
39 | COc1ccc(C)cc1NC(=O)Cn1c(=O)ccc2cc(S(=O)(=O)N3CCCC3)ccc21 | inactive: 29.1%
40 | CCOc1cc(C(=O)N2CCc3c([nH]c4ccccc34)C2c2ccccc2)cc(OCC)c1OCC (centres undefined) | inactive: -27.2%
41 | Cc1ccc(N(CC(=O)Nc2ccc(C)c(F)c2)S(=O)(=O)c2c(C)n[nH]c2C)cc1 | active: 102%
42 | N#Cc1c[nH]n2c(NC3CCCC3)c(-c3cccc(Cl)c3)nc12 | inactive: -18.1%

Row | Compound | activation
43 | CCOC(=O)c1sc2ncn(CC(=O)Nc3ccc(C)cc3Br)c(=O)c2c1C | inactive: 2.56%
44 | COc1ccccc1-n1c(/C=C/c2c(C)n(C)c3ccccc23)nc2ccccc2c1=O | inactive: -32.6%
45 | CCOc1ccc(OCC(=O)Nc2nnc3n2CCS3)cc1 | inactive: -6.97%
46 | COc1cccc(NC(=O)c2cnn(-c3ccccc3)c2-n2cccc2)c1 | inactive: -9.72%
47 | CCc1ccc(Sc2cc(C(=O)NC(C)CC)c3ccccc3n2)cc1 (centres undefined) | active: 74.7%
48 | COc1ccc(-c2noc(CSc3nnc(-c4ccncc4)n3-c3ccc(C)cc3)n2)cc1 | inactive: 5.98%
49 | CCOc1ccc(Sc2cc(C(=O)NCCc3ccccc3)c3ccccc3n2)cc1 | inactive: -23.1%
50 | CCOc1nc(NC(=O)NS(=O)(=O)Oc2ccccc2)nc(-c2ccccc2)n1 | inactive: 1.95%
51 | COc1cccc(CNC(=O)C2CCC(CNS(=O)(=O)c3ccc(Br)s3)CC2)c1 (centres undefined) | inactive: 19.9%
52 | CCOC(=O)C(Cc1c[nH]c2ccccc12)NC(=O)COc1ccc(Cl)c(C)c1 (centres undefined) | inactive: 6.58%
53 | O=C(C1CCC(Cn2c(=O)c3sccc3n(Cc3cccc(F)c3)c2=O)CC1)N1CCCCC1 (centres undefined) | inactive: -28.5%
54 | COc1ccc(NC(=O)c2c(C)oc3ccc(O)c(CN4CCC(C)CC4)c23)cc1 | inactive: 39.6%
55 | COc1ccccc1Nc1nn2c(=O)c3ccc(C(=O)NCc4ccc(F)cc4)cc3nc2s1 | inactive: 17.7%
56 | O=C(NCCc1ccccc1)C(=O)NCC(c1cccnc1)N1CCN(c2ccccc2F)CC1 (centres undefined) | inactive: 14.9%
57 | CCN1CCN(C(c2ccc(F)cc2)c2c(O)cc(C)n(CCOC)c2=O)CC1 (centres undefined) | inactive: -13.1%
58 | Cc1ccc(CNC(=O)C(=O)NCC(c2ccco2)S(=O)(=O)c2cccs2)cc1 (centres undefined) | inactive: -18.2%
59 | COc1ccc(CCNC(=O)c2ccc(CS(=O)(=O)Cc3cccc(C)c3)o2)cc1OC | inactive: 22.3%
60 | COc1ccc(C(=O)Nc2ccc(-c3cc4ccccc4oc3=O)c(C)c2)cc1OC | inactive: 30.9%
61 | CC(C)CCNC(=O)C1CCN(C(=O)N2CCOc3ccc(Cl)cc32)CC1 | inactive: -1.2%
62 | CCc1cccc2c(-c3ccc(F)cc3)nc(SCC(=O)Nc3ccccc3)nc12 | inactive: -9.01%
63 | CSc1cccc(NC(=O)N2CCN(c3cc(-c4noc(C)n4)ccc3C)CC2)c1 | inactive: -2.39%

Row | Compound | activation
64 | COc1ccc(-c2n[nH]c3c2C(c2ccc(O)cc2)N(c2ccc(Br)cc2)C3=O)cc1 (centres undefined) | inactive: -5.77%
65 | CCN1CCN(c2ncnc3c2cnn3-c2ccc(C)cc2)CC1 | inactive: 7.28%
66 | C=C(C)CSc1nc2sc3c(c2c(=O)n1-c1ccccc1)CCC(C)C3 (centres undefined) | inactive: 15.9%
67 | O=C(NC1CCCCCC1)c1ccc2c(c1)sc1nc(-c3ccccc3)cn12 | inactive: -13.4%
68 | COc1cc(C2CC(=O)N(c3ccccc3)C3=C2C(=O)OC3)cc(OC)c1OC (centres undefined) | inactive: 20.1%
69 | CCOC(=O)c1c(C)[nH]c(C)c1S(=O)(=O)N1CCCC(C(=O)Nc2ccc(F)cc2F)C1 (centres undefined) | inactive: 0%
70 | CCOc1ccc(NC(=O)CSc2cn(CC(=O)N3CCCCCC3)c3ccccc23)cc1 | inactive: 4.14%
71 | Cc1nc2ccc(S(=O)(=O)NC(CC(C)C)C(=O)N3CCN(c4ccc(F)cc4)CC3)cc2s1 (centres undefined) | inactive: -12.7%
72 | CCN(CC)CCCNC(=O)c1ccc2c(c1)NC(=O)C(CS(=O)(=O)Cc1cccc(Br)c1)N2 (centres undefined) | inactive: -11.2%
73 | Cc1ccc(CNC(=O)c2c(O)nc3c(C)cccn3c2=O)cc1 | inactive: 3.7%
74 | CN(C)c1ccc(CNS(=O)(=O)c2ccc3[nH]c4c(c3c2)CCCCC4)cc1 | inactive: 48.5%
75 | COc1ccc(Br)cc1CNC(=O)c1nn(-c2ccc(C)cc2)c(=O)c2c1c1ccccc1n2C | inactive: 17.2%
76 | Cc1ccccc1-c1noc(-c2cccnc2N(C)Cc2ccc(Cl)cc2)n1 | inactive: -14.6%
77 | Clc1ccccc1C(c1ccccc1)(c1ccccc1)n1ccnc1 | inactive: -118% and inactive: 14.4%
78 | NC(=O)NO | inactive: -25.7% and inactive: 9.15%
79 | CCOC(=O)c1cccc(NC(=O)CCC(=O)N2CC(C)Oc3ccc(C)cc32)c1 (centres undefined) | inactive: -20.4%
80 | CCOC(=O)c1ccc(NC(=O)c2csnn2)cc1 | inactive: 8.03%
81 | O=C(C1CC1)N1CCN(c2nc3c(Cl)cccc3s2)CC1 | inactive: -8.6%
82 | Fc1ccc(Cc2cn3cc(-c4ccccc4)nc3s2)cc1 | inactive: 32.5%
83 | CO/N=C1\CN(c2nc3c(cc2F)c(=O)c(C(=O)O)cn3C2CC2)CC1CN (centres undefined) | inactive: -54.2%
84 | COc1ccc(CCNC(=O)CSc2nnnn2-c2cccc(C(C)=O)c2)cc1OC | inactive: 15.1%
